Assay results as given in the supplement of paper PMC4967469.
By IC50 is meant the dose at which the fit gives 50% viability; where the fit passes the top or lowest dose, that dose stands as a limit. The AUC spans the tested range (256-fold, ending at the top dose) of the same fit; values near 1 show little effect. For part of these data: Any top dose called inferred is not printed in the source and was worked back from the curve model. For part of these data: Drugs with an entry number were screened twice under separate entries, and the two screens often disagree.

What was measured:
Assay in all cases: Viability of human cancer cell lines after 72 h of drug (GDSC screen)
JNJ-26854165 = compound: c1ccc2c(CCNc3ccc(Nc4ccncc4)cc3)c[nH]c2c1 [JNJ-26854165]; conditions: top dose 10 µM
Protocol: (§1)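 Human cancer cell lines in 384-well plates, medium with 10% serum, drug for 72 h over a 256-fold dose range (nine 2-fold or five 4-fold steps up to the top dose). Adherent lines were fixed and stained with the nucleic acid dye Syto60, suspension lines read with resazurin; signal relative to control wells, capped at 0 and 100%. One two-parameter sigmoid per drug and line, fitted in a mixed model over all curves with the slope shared within a line.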

FTI-277 = compound: COC(=O)[C@H](CCSC)NC(=O)c1ccc(NC[C@@H](N)CS)cc1-c1ccccc1 [FTI-277]; conditions: top dose 1.024 µM; top dose inferred
Protocol: as §1

JNK Inhibitor VIII = compound: CCOc1nc(NC(=O)Cc2cc(OC)ccc2OC)cc(N)c1C#N [JNK Inhibitor VIII]; conditions: top dose 10 µM; top dose inferred
Protocol: as §1

NSC-207895 = compound: CN1CCN(c2ccc([N+](=O)[O-])c3no[n+]([O-])c23)CC1 [NSC-207895]; conditions: top dose 20 µM; top dose inferred
Protocol: as §1

YM155 = compound: COCC[n+]1c2c(n(Cc3cnccn3)c1C)C(=O)c1ccccc1C2=O [YM155]; conditions: top dose 5.12 µM
Protocol: as §1

Belinostat = compound: O=C(/C=C/c1cccc(S(=O)(=O)Nc2ccccc2)c1)NO [Belinostat]; conditions: top dose 20 µM; top dose inferred
Protocol: as §1

SB-715992 = compound: Cc1ccc(C(=O)N(CCCN)[C@@H](c2nc3cc(Cl)ccc3c(=O)n2Cc2ccccc2)C(C)C)cc1 [SB-715992]; conditions: top dose 0.128 µM; top dose inferred
Protocol: as §1

OSI-906 = compound: C[C@]1(O)C[C@@H](c2nc(-c3ccc4ccc(-c5ccccc5)nc4c3)c3c(N)nccn32)C1 [OSI-906]; conditions: top dose 2.56 µM; top dose inferred
Protocol: as §1

AMG-706 = compound: CC1(C)CNc2cc(NC(=O)c3cccnc3NCc3ccncc3)ccc21 [AMG-706]; conditions: top dose 2 µM; top dose inferred
Protocol: as §1

Docetaxel = compound: CC(=O)O[C@@]12CO[C@@H]1C[C@H](O)[C@@]1(C)C(=O)[C@H](O)C3=C(C)[C@@H](OC(=O)[C@H](O)[C@@H](NC(=O)OC(C)(C)C)c4ccccc4)C[C@@](O)([C@@H](OC(=O)c4ccccc4)[C@H]21)C3(C)C [Docetaxel]; conditions: top dose 0.0125 µM
Protocol: as §1

JQ1 = compound: Cc1sc2c(c1C)C(c1ccc(Cl)cc1)=N[C@@H](CC(=O)OC(C)(C)C)c1nnc(C)n1-2 [JQ1]
Protocol: as §1

[1] = top dose 1 µM, screen: GDSC drug entry 1218, top dose inferred
[2] = top dose 2.56 µM, screen: GDSC drug entry 163

| Cell Line | AUC (JNJ-26854165) | IC50 (JNJ-26854165) | AUC (FTI-277) | IC50 (FTI-277) | AUC (JNK Inhibitor VIII) | IC50 (JNK Inhibitor VIII) | AUC (NSC-207895) | IC50 (NSC-207895) | AUC (YM155) | IC50 (YM155) | AUC (Belinostat) | IC50 (Belinostat) | AUC (SB-715992) | IC50 (SB-715992) | AUC (OSI-906) | IC50 (OSI-906) | AUC (AMG-706) | IC50 (AMG-706) | AUC (Docetaxel) | IC50 (Docetaxel) | AUC (JQ1; [1]) | IC50 (JQ1; [1]) | AUC (JQ1; [2]) | IC50 (JQ1; [2]) |
| --- | --- | --- | --- | --- | --- | --- | --- | --- | --- | --- | --- | --- | --- | --- | --- | --- | --- | --- | --- | --- | --- | --- | --- | --- |
| HCC-56 (large intestine, adherent) | 0.973 | > 10000 nM | 0.987 | > 1020 nM | 0.987 | > 10000 nM | 0.906 | > 20000 nM | 0.702 | 1210 nM | 0.251 | 236 nM | 0.787 | 56.9 nM | 0.698 | 584 nM | 0.987 | > 2000 nM | 0.951 | > 12.5 nM | 0.982 | > 1000 nM | 0.864 | 2330 nM |
| HCT-15 (large intestine, adherent) | 0.929 | > 10000 nM | 0.861 | 955 nM | 0.98 | > 10000 nM | 0.919 | > 20000 nM | 0.306 | 88 nM | 0.586 | 2180 nM | 0.968 | > 128 nM | 0.987 | > 2560 nM | 0.973 | > 2000 nM | 0.978 | > 12.5 nM | 0.985 | > 1000 nM | 0.626 | 364 nM |
| HEC-1 (endometrium, adherent) | 0.914 | > 10000 nM | 0.987 | > 1020 nM | 0.989 | > 10000 nM | 0.976 | > 20000 nM | 0.104 | < 20 nM | 0.499 | 1240 nM | 0.972 | > 128 nM | 0.988 | > 2560 nM | 0.989 | > 2000 nM | 0.721 | 3.2 nM | 0.987 | > 1000 nM | 0.716 | 636 nM |
| HGC-27 (stomach, adherent) | 0.89 | 8420 nM | 0.97 | > 1020 nM | 0.99 | > 10000 nM | 0.89 | 16900 nM | 0.023 | < 20 nM | 0.436 | 859 nM | 0.844 | 72 nM | 0.982 | > 2560 nM | 0.989 | > 2000 nM | 0.47 | 0.657 nM | 0.986 | > 1000 nM | 0.411 | 95.1 nM |
| HN (head and neck, adherent) | 0.87 | 8380 nM | 0.989 | > 1020 nM | 0.952 | > 10000 nM | 0.989 | > 20000 nM | 0.42 | 196 nM | 0.8 | 9000 nM | 0.989 | > 128 nM | 0.984 | > 2560 nM | 0.966 | > 2000 nM | 0.544 | 1.02 nM | 0.968 | > 1000 nM | 0.894 | > 2560 nM |
| HO-1-u-1 (head and neck, adherent) | 0.828 | 5840 nM | 0.988 | > 1020 nM | 0.988 | > 10000 nM | 0.932 | > 20000 nM | 0.034 | < 20 nM | 0.41 | 715 nM | 0.986 | > 128 nM | 0.982 | > 2560 nM | 0.987 | > 2000 nM | 0.495 | 0.757 nM | 0.904 | > 1000 nM | 0.912 | > 2560 nM |
| HT55 (large intestine, adherent) | 0.962 | > 10000 nM | 0.99 | > 1020 nM | 0.99 | > 10000 nM | 0.99 | > 20000 nM | 0.984 | > 5120 nM | 0.543 | 1640 nM | 0.982 | > 128 nM | 0.985 | > 2560 nM | 0.99 | > 2000 nM | 0.863 | 10.8 nM | 0.99 | > 1000 nM | 0.955 | > 2560 nM |
| HT-3 (cervix, adherent) | 0.908 | > 10000 nM | 0.964 | > 1020 nM | 0.979 | > 10000 nM | 0.847 | 15100 nM | 0.029 | < 20 nM | 0.386 | 606 nM | 0.953 | > 128 nM | 0.935 | > 2560 nM | 0.979 | > 2000 nM | 0.679 | 2.5 nM | 0.775 | 401 nM | 0.664 | 461 nM |
| HT-115 (large intestine, adherent) | 0.958 | > 10000 nM | 0.974 | > 1020 nM | 0.987 | > 10000 nM | 0.991 | > 20000 nM | 0.978 | > 5120 nM | 0.431 | 825 nM | 0.989 | > 128 nM | 0.991 | > 2560 nM | 0.983 | > 2000 nM | 0.928 | > 12.5 nM | 0.991 | > 1000 nM | 0.867 | 1970 nM |
| HT-1080 (fibrosarcoma, adherent) | 0.761 | 3200 nM | 0.952 | > 1020 nM | 0.989 | > 10000 nM | 0.91 | > 20000 nM | 0.075 | < 20 nM | 0.539 | 1580 nM | 0.976 | > 128 nM | 0.989 | > 2560 nM | 0.985 | > 2000 nM | 0.442 | 0.552 nM | 0.981 | > 1000 nM | 0.82 | 1270 nM |
| HT-1376 (bladder, adherent) | 0.963 | > 10000 nM | 0.967 | > 1020 nM | 0.955 | > 10000 nM | 0.984 | > 20000 nM | 0.883 | > 5120 nM | 0.829 | 15500 nM | 0.982 | > 128 nM | 0.961 | > 2560 nM | 0.979 | > 2000 nM | 0.922 | > 12.5 nM | 0.976 | > 1000 nM | 0.881 | > 2560 nM |
